# Results published in the supplement of paper PMC8728848.
# The list shows a part of the results.
# B1: CvGal2 (Crassostrea virginica) (protein)
# chain: MGSSHHHHHHSSGLVPRGSHMRIREAGKRKDTTKVYQIPDGLFPGQQVMLRGRVPWGSKSFSINFSATPRMGEGDILFHLNPRPSEGVCIRNALLNGSWGAEEKWQPYFPFDDGRSFSVKIEVTNDAFRTFVNGRPFVDFLHRTDFRAGKYLTLREGAEYYDVIFQSKPNIPLTTAIHNGMRIGKTIRIRGMCTAQDGFAINFNDNRNNIYFHFNARPAQRTVVRNSYFGSWGNEETAISKEFPFYPFLYFYASFVCMEDKFAVYVNDEHFIDFAHRGNPNNISVLQIKGSVNVLDTECLEPMGEDAMTEVDSGLENGDLFVLNGLMTERGKTFAVNFLNGFTENDDIALHFNPRKSTGEVVLNSRYGGAWQSEEKVALPGVFWSNRPLQVKVETKRNKFKIYVNGVDLAKYKIRGNVEDVHAVQVKGDVFLLETLLLKRLMKPVWERLTGGIRPGTWVTLQGTPKKNWQQFVVNFALDDTLDGDIAFHFNVRRGARQVVRNHRQSGAWGREETVTPFFAFDSEATFEIVFFVKEEKFLIYFNGKLFFEFVHRVPVERITHIYMDGDCNFYEPEVVI
# Experiments:
# Assay in all cases: glycan array binding signal (z-score within array); higher = stronger binding
# Conditions in all cases: glycan notation: IUPAC condensed, linker removed
# [1] = target: Fuc(a1-2)[GalNAc(b1-3)]Gal
# In short: (§1)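 Glycan array data came from 3228 arrays in the Consortium for Functional Glycomics database, and only arrays with an available protein sequence were kept. Glycan names were put into IUPAC-condensed notation, and columns mapping to the same glycan were averaged. The binding signal is a within-array Z-score, averaged across arrays of one protein sequence run at different concentrations or buffers and across linkers. A negative Z-score can be read as non-binding.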
# Fuc(a1-3)GlcNAc = target: Fuc(a1-3)GlcNAc
# In short: as §1
# [2] = target: Fuc(a1-3)[Gal(b1-4)]Glc6S
# In short: as §1
# [3] = target: Fuc(a1-3)[Gal(b1-4)]GlcNAc
# In short: as §1
# [4] = target: Fuc(a1-3)[Gal(b1-4)]GlcNAc(b1-2)Man
# In short: as §1
# [5] = target: Fuc(a1-3)[Gal(b1-4)]GlcNAc(b1-2)Man(a1-3)[Fuc(a1-3)[Gal(b1-4)]GlcNAc(b1-2)Man(a1-6)]Man(b1-4)GlcNAc(b1-4)GlcNAc
# In short: as §1
# [6] = target: Fuc(a1-3)[Gal(b1-4)]GlcNAc(b1-2)Man(a1-3)[Fuc(a1-3)[Gal(b1-4)]GlcNAc(b1-2)Man(a1-6)]Man(b1-4)GlcNAc(b1-4)[Fuc(a1-6)]GlcNAc
# In short: as §1
# [7] = target: Fuc(a1-3)[Gal(b1-4)]GlcNAc(b1-3)Gal(b1-3)[Fuc(a1-4)]GlcNAc
# In short: as §1
# [8] = target: Fuc(a1-3)[Gal(b1-4)]GlcNAc(b1-3)Gal(b1-4)[Fuc(a1-3)]GlcNAc
# In short: as §1
# [9] = target: Fuc(a1-3)[Gal(b1-4)]GlcNAc(b1-3)Gal(b1-4)[Fuc(a1-3)]GlcNAc(b1-3)Gal(b1-4)[Fuc(a1-3)]GlcNAc
# In short: as §1
# [10] = target: Fuc(a1-3)[Gal(b1-4)]GlcNAc(b1-3)GalNAc
# In short: as §1
# [11] = target: Fuc(a1-3)[Gal(b1-4)]GlcNAc(b1-6)GalNAc
# In short: as §1
# [12] = target: Fuc(a1-3)[Gal(b1-4)]GlcNAc(b1-6)[Gal(b1-3)GlcNAc(b1-3)]Gal(b1-4)Glc
# In short: as §1
# [13] = target: Fuc(a1-3)[Gal(b1-4)]GlcNAc6S
# In short: as §1
# [14] = target: Fuc(a1-3)[Gal3S(b1-4)]Glc
# In short: as §1
# [15] = target: Fuc(a1-3)[Gal3S(b1-4)]GlcNAc
# In short: as §1
# [16] = target: Fuc(a1-3)[Gal3S(b1-4)]GlcNAc6S
# In short: as §1
# [17] = target: Fuc(a1-3)[GalNAc(b1-4)]GlcNAc
# In short: as §1
# [18] = target: Fuc(a1-3)[GalNAc(b1-4)]GlcNAc6S
# In short: as §1
# Fuc(a1-4)GlcNAc = target: Fuc(a1-4)GlcNAc
# In short: as §1
# Fuc(b1-3)GlcNAc = target: Fuc(b1-3)GlcNAc
# In short: as §1
# Gal(a1-2)Gal = target: Gal(a1-2)Gal
# In short: as §1
# Gal(a1-3)Gal = target: Gal(a1-3)Gal
# In short: as §1
# Gal(a1-3)Gal(b1-3)GlcNAc = target: Gal(a1-3)Gal(b1-3)GlcNAc
# In short: as §1
# [19] = target: Gal(a1-3)Gal(b1-3)GlcNAc(b1-2)Man
# In short: as §1
# [20] = target: Gal(a1-3)Gal(b1-3)GlcNAc(b1-2)Man(a1-3)[Gal(a1-3)Gal(b1-3)GlcNAc(b1-2)Man(a1-6)]Man(b1-4)GlcNAc(b1-4)GlcNAc
# In short: as §1
# [21] = target: Gal(a1-3)Gal(b1-3)GlcNAc(b1-3)GalNAc
# In short: as §1
# [22] = target: Gal(a1-3)Gal(b1-3)GlcNAc(b1-6)GalNAc
# In short: as §1
# [23] = target: Gal(a1-3)Gal(b1-3)[Fuc(a1-4)]GlcNAc(b1-2)Man(a1-3)[Gal(a1-3)Gal(b1-3)[Fuc(a1-4)]GlcNAc(b1-2)Man(a1-6)]Man(b1-4)GlcNAc(b1-4)GlcNAc
# In short: as §1
# Gal(a1-3)Gal(b1-4)Glc = target: Gal(a1-3)Gal(b1-4)Glc
# In short: as §1
# Gal(a1-3)Gal(b1-4)GlcNAc = target: Gal(a1-3)Gal(b1-4)GlcNAc
# In short: as §1
# [24] = target: Gal(a1-3)Gal(b1-4)GlcNAc(b1-2)Man
# In short: as §1
# [25] = target: Gal(a1-3)Gal(b1-4)GlcNAc(b1-2)Man(a1-3)[Gal(a1-3)Gal(b1-4)GlcNAc(b1-2)Man(a1-6)]Man(b1-4)GlcNAc(b1-4)GlcNAc
# In short: as §1
# [26] = target: Gal(a1-3)Gal(b1-4)GlcNAc(b1-3)GalNAc
# In short: as §1
# [27] = target: Gal(a1-3)Gal(b1-4)GlcNAc(b1-6)GalNAc
# In short: as §1
# [28] = target: Gal(a1-3)Gal(b1-4)[Fuc(a1-3)]GlcNAc
# In short: as §1
# [29] = target: Gal(a1-3)Gal(b1-4)[Fuc(a1-3)]GlcNAc(b1-2)Man(a1-3)[Gal(a1-3)Gal(b1-4)[Fuc(a1-3)]GlcNAc(b1-2)Man(a1-6)]Man(b1-4)GlcNAc(b1-4)GlcNAc
# In short: as §1
# Gal(a1-3)GalNAc = target: Gal(a1-3)GalNAc
# In short: as §1
# [30] = target: Gal(a1-3)[Gal(a1-4)]Gal(b1-4)GlcNAc
# In short: as §1
# [31] = target: Gal(a1-4)Gal(b1-3)GlcNAc(b1-2)Man(a1-3)[Gal(a1-4)Gal(b1-3)GlcNAc(b1-2)Man(a1-6)]Man(b1-4)GlcNAc(b1-4)GlcNAc
# In short: as §1
# Gal(a1-4)Gal(b1-4)Glc = target: Gal(a1-4)Gal(b1-4)Glc
# In short: as §1
# Gal(a1-4)Gal(b1-4)GlcNAc = target: Gal(a1-4)Gal(b1-4)GlcNAc
# In short: as §1
# [32] = target: Gal(a1-4)Gal(b1-4)GlcNAc(b1-2)Man(a1-3)[Gal(a1-4)Gal(b1-4)GlcNAc(b1-2)Man(a1-6)]Man(b1-4)GlcNAc(b1-4)GlcNAc
# In short: as §1
# [33] = target: Gal(a1-4)Gal(b1-4)GlcNAc(b1-3)Gal(b1-4)Glc
# In short: as §1
# Gal(a1-4)GlcNAc = target: Gal(a1-4)GlcNAc
# In short: as §1
# Gal(a1-6)Glc = target: Gal(a1-6)Glc
# In short: as §1
# Gal(b1-2)Gal = target: Gal(b1-2)Gal
# In short: as §1
# Gal(b1-3)Gal = target: Gal(b1-3)Gal
# In short: as §1
# Gal(b1-3)Gal(b1-4)GlcNAc = target: Gal(b1-3)Gal(b1-4)GlcNAc
# In short: as §1
# Gal(b1-3)GalNAc = target: Gal(b1-3)GalNAc
# In short: as §1
# [34] = target: Gal(b1-3)GalNAc(a1-3)[Fuc(a1-2)]Gal(b1-4)Glc
# In short: as §1
# [35] = target: Gal(b1-3)GalNAc(a1-3)[Fuc(a1-2)]Gal(b1-4)GlcNAc
# In short: as §1
# Gal(b1-3)GalNAc(b1-3)Gal = target: Gal(b1-3)GalNAc(b1-3)Gal
# In short: as §1
# [36] = target: Gal(b1-3)GalNAc(b1-3)Gal(a1-4)Gal(b1-4)Glc
# In short: as §1
# [37] = target: Gal(b1-3)GalNAc(b1-4)Gal(b1-4)Glc
# In short: as §1
# [38] = target: Gal(b1-3)GalNAc(b1-4)[Neu5Ac(a2-3)]Gal(b1-4)Glc
# In short: as §1
# Gal(b1-3)GlcNAc = target: Gal(b1-3)GlcNAc
# In short: as §1
# [39] = target: Gal(b1-3)GlcNAc(a1-3)Gal(b1-4)GlcNAc
# In short: as §1
# [40] = target: Gal(b1-3)GlcNAc(a1-6)Gal(b1-4)GlcNAc
# In short: as §1
# Gal(b1-3)GlcNAc(b1-2)Man = target: Gal(b1-3)GlcNAc(b1-2)Man
# In short: as §1
binder,measurement,setting,value
B1,glycan array binding signal (z-score),[1],-0.033
same,glycan array binding signal (z-score),Fuc(a1-3)GlcNAc,-0.314
same,glycan array binding signal (z-score),[2],-0.332
same,glycan array binding signal (z-score),[3],-0.331
same,glycan array binding signal (z-score),[4],-0.323
same,glycan array binding signal (z-score),[5],-0.319
same,glycan array binding signal (z-score),[6],-0.333
same,glycan array binding signal (z-score),[7],-0.331
same,glycan array binding signal (z-score),[8],-0.335
same,glycan array binding signal (z-score),[9],-0.325
same,glycan array binding signal (z-score),[10],-0.324
same,glycan array binding signal (z-score),[11],-0.33
same,glycan array binding signal (z-score),[12],-0.072
same,glycan array binding signal (z-score),[13],-0.319
same,glycan array binding signal (z-score),[14],-0.337
same,glycan array binding signal (z-score),[15],-0.329
same,glycan array binding signal (z-score),[16],-0.334
same,glycan array binding signal (z-score),[17],-0.321
same,glycan array binding signal (z-score),[18],-0.338
same,glycan array binding signal (z-score),Fuc(a1-4)GlcNAc,-0.312
same,glycan array binding signal (z-score),Fuc(b1-3)GlcNAc,-0.333
same,glycan array binding signal (z-score),Gal(a1-2)Gal,-0.333
same,glycan array binding signal (z-score),Gal(a1-3)Gal,-0.333
same,glycan array binding signal (z-score),Gal(a1-3)Gal(b1-3)GlcNAc,-0.137
same,glycan array binding signal (z-score),[19],1.04
same,glycan array binding signal (z-score),[20],-0.259
same,glycan array binding signal (z-score),[21],0.213
same,glycan array binding signal (z-score),[22],0.505
same,glycan array binding signal (z-score),[23],-0.32
same,glycan array binding signal (z-score),Gal(a1-3)Gal(b1-4)Glc,0.291
same,glycan array binding signal (z-score),Gal(a1-3)Gal(b1-4)GlcNAc,0.47
same,glycan array binding signal (z-score),[24],-0.023
same,glycan array binding signal (z-score),[25],3.52
same,glycan array binding signal (z-score),[26],-0.243
same,glycan array binding signal (z-score),[27],-0.257
same,glycan array binding signal (z-score),[28],-0.332
same,glycan array binding signal (z-score),[29],-0.329
same,glycan array binding signal (z-score),Gal(a1-3)GalNAc,-0.331
same,glycan array binding signal (z-score),[30],-0.287
same,glycan array binding signal (z-score),[31],-0.322
same,glycan array binding signal (z-score),Gal(a1-4)Gal(b1-4)Glc,-0.306
same,glycan array binding signal (z-score),Gal(a1-4)Gal(b1-4)GlcNAc,-0.325
same,glycan array binding signal (z-score),[32],-0.336
same,glycan array binding signal (z-score),[33],-0.345
same,glycan array binding signal (z-score),Gal(a1-4)GlcNAc,-0.346
same,glycan array binding signal (z-score),Gal(a1-6)Glc,-0.345
same,glycan array binding signal (z-score),Gal(b1-2)Gal,-0.321
same,glycan array binding signal (z-score),Gal(b1-3)Gal,-0.266
same,glycan array binding signal (z-score),Gal(b1-3)Gal(b1-4)GlcNAc,0.538
same,glycan array binding signal (z-score),Gal(b1-3)GalNAc,-0.291
same,glycan array binding signal (z-score),[34],3.35
same,glycan array binding signal (z-score),[35],4.05
same,glycan array binding signal (z-score),Gal(b1-3)GalNAc(b1-3)Gal,-0.102
same,glycan array binding signal (z-score),[36],-0.079
same,glycan array binding signal (z-score),[37],-0.154
same,glycan array binding signal (z-score),[38],-0.219
same,glycan array binding signal (z-score),Gal(b1-3)GlcNAc,-0.108
same,glycan array binding signal (z-score),[39],0.017
same,glycan array binding signal (z-score),[40],-0.138
same,glycan array binding signal (z-score),Gal(b1-3)GlcNAc(b1-2)Man,-0.147
